{"source": "PubChem BioAssay (NCATS)", "key": {"[1]": {"experiment": "qHTS Screen of the MIPE 4.0 Collection Against Ewings Sarcoma (RDES) (AID 1259252); note: nearly all actives have a fitted effect of over 35% in size", "how_it_was_run": "(§1)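 Log-phase cells in RPMI with 5% FBS attached for 4 h, then received compounds as a titration for 48 h at 37C, 5% CO2. Viability was read by CellTiter-Glo luminescence and normalized to DMSO and no-cell wells.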"}, "[2]": {"experiment": "qHTS Screen of the MIPE 4.0 Collection Against Ewings Sarcoma (TC71) (AID 1259253)", "how_it_was_run": "as §1"}, "[3]": {"experiment": "qHTS Screen of the MIPE 4.0 Collection Against Ewings Sarcoma (EW8) (AID 1259255)", "how_it_was_run": "as §1"}, "[4]": {"experiment": "qHTS Assay for Identifying Gametocytocidal Compounds (AID 743244)", "conditions": "P. falciparum 3D7 stage III-V gametocytes, alamarBlue, 72 h; max response: stronger effect = lower value", "how_it_was_run": "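Stage III-V P. falciparum 3D7 gametocytes, 20,000 per well, were exposed to compounds for 72 h at 37C, 5% CO2. AlamarBlue was then added for 24 h and viability was read as fluorescence at Ex 525/Em 598 nm.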"}}, "note": "Where “and” joins values, the source holds several entries; their conditions need not be identical. Equal entries are not always repeated. Inconclusive means that the source gave no clear call. Such entries were picked first, then a sample of the others. Potencies beside an inconclusive call are fits to weak or partial responses and may not hold up. Calls of active or inactive are those of the source. Calls come from the whole dose curve; as a rule, active = well fitted curve in the direction sought with a large enough effect; inconclusive = small, poorly fitted or top-dose-only effect, or another doubt; inactive = no such curve, though single readings can be large; an effect the other way counts as inactive or inconclusive. Potency is the fitted concentration of half-maximal effect; tags give direction and shape of the fitted curve."}
{"compound": "C=CC(=O)Nc1cccc(Sc2nc(Nc3ccc(N4CCN(C)CC4)cc3)ncc2Cl)c1", "values": [{"measurement": "Potency", "setting": "[1]", "value": "active: 18.7 µM"}, {"measurement": "Potency", "setting": "[2]", "value": "inconclusive: 37.2 µM [inhibitor, single point]"}, {"measurement": "Potency", "setting": "[3]", "value": "inconclusive: 9.35 µM [inhibitor, partial curve, poor fit]"}]}
{"compound": "COc1ncc(-c2ccc3nccc(-c4ccnnc4)c3c2)cc1NS(=O)(=O)c1ccc(F)cc1F", "values": [{"measurement": "Potency", "setting": "[4]", "value": "active: 935 nM"}, {"measurement": "Potency", "setting": "[1]", "value": "inconclusive: 0.148 µM [inhibitor, full curve]"}, {"measurement": "Potency", "setting": "[2]", "value": "inconclusive: 0.0148 µM [inhibitor, full curve]"}, {"measurement": "Potency", "setting": "[3]", "value": "inconclusive: 0.0118 µM [inhibitor, full curve]"}]}
{"compound": "COc1ccc(C=CC(=O)Nc2ccccc2C(=O)O)cc1OC", "values": [{"measurement": "Potency", "setting": "[2]", "value": "inconclusive: 23.5 µM [inhibitor, single point]"}, {"measurement": "Potency", "setting": "[3]", "value": "inactive"}]}
{"compound": "CCCc1nc2c(C)cc(-c3nc4ccccc4n3C)cc2n1Cc1ccc(-c2ccccc2C(=O)O)cc1", "values": [{"measurement": "Potency", "setting": "[4]", "value": "inconclusive: 46.9 µM [inhibitor, partial curve] and inconclusive: 22.4 µM [inhibitor, partial curve]"}, {"measurement": "Potency", "setting": "[1]", "value": "inconclusive: 33.2 µM [inhibitor, single point]"}, {"measurement": "Potency", "setting": "[2]", "value": "inconclusive: 33.2 µM [inhibitor, single point]"}, {"measurement": "Potency", "setting": "[3]", "value": "inconclusive: 33.2 µM [inhibitor, single point]"}]}
{"compound": "NC(=O)c1ccc(-c2nc(-c3ccc4c(c3)OCCO4)c(-c3ccccn3)[nH]2)cc1", "values": [{"measurement": "Potency", "setting": "[4]", "value": "inconclusive: 59000 nM [inhibitor, partial curve, poor fit]"}, {"measurement": "Potency", "setting": "[1]", "value": "inconclusive: 33.2 µM [inhibitor, single point]"}, {"measurement": "Potency", "setting": "[2]", "value": "active: 23.5 µM"}, {"measurement": "Potency", "setting": "[3]", "value": "inconclusive: 20.9 µM [inhibitor, single point]"}]}
